# Results as given in publication PMC4336329 (PLoS ONE, 2015).
# Hit rate of the full screen: of about 310,000 compounds, about 2,200 (0.71%) showed an effect of 50% or more. The effect is printed as a negative number. The list shows a part of the results.
# Molecular target: human ether-à-go-go-related gene (hERG) potassium channel (human, UniProt Q12809)
# Assay: primary screen, population patch clamp on CHO cells stably expressing hERG
# Chain of human ether-à-go-go-related gene (hERG) potassium channel (Q12809 whole entry, looked up): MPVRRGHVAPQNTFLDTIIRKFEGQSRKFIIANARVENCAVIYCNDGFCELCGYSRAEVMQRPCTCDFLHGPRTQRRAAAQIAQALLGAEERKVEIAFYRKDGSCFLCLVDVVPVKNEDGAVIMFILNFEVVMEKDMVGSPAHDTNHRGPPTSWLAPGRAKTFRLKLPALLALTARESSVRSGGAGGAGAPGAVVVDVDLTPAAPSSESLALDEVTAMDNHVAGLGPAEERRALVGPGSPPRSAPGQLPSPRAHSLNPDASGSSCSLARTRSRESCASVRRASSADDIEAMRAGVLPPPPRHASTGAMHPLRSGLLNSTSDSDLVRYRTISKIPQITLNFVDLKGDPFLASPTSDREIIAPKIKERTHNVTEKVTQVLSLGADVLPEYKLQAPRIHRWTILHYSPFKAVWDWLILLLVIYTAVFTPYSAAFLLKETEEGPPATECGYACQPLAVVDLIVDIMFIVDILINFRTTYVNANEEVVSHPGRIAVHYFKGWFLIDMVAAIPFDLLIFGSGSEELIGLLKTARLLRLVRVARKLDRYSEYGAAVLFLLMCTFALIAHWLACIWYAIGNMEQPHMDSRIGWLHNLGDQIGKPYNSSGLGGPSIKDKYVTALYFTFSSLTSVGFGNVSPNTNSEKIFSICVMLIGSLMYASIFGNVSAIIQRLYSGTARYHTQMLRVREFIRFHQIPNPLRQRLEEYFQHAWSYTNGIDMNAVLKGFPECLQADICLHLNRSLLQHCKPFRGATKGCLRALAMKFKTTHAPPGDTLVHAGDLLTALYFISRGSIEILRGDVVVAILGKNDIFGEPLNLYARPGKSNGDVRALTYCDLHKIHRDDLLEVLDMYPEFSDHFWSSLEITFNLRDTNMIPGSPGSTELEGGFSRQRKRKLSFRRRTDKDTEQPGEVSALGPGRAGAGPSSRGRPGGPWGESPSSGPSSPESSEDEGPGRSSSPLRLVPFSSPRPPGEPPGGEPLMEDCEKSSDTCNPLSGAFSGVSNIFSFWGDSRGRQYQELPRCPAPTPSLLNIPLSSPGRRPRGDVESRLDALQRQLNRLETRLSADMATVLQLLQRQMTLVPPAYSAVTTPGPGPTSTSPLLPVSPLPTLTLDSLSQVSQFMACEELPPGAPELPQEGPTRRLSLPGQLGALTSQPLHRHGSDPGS
row,SMILES,"hERG current change (%, negative = inhibition) at 1uM [%]"
1,CCc1ccccc1NC(=O)c1cc2ncc(Br)cn2n1,14.8
2,CCOc1ccc(S(=O)(=O)N(CC(=O)N2CCC(C(N)=O)CC2)c2ccc(F)cc2)cc1,-11
3,Cn1cc(/C=C/C(=O)N2CCCC(C(=O)c3cccc(C(F)(F)F)c3)C2)cn1 (stereo not drawn),1.1
4,Cc1ccc(-n2nc3c(c2NC(=O)c2ccc4c(c2)OCO4)CS(=O)(=O)C3)cc1C,13.1
5,O=C(c1ccc(Cl)cc1)N1CCCC(C(=O)N2CCc3ccccc3C2)C1 (stereo not drawn),-1.16
6,Cc1ccc([N+](=O)[O-])cc1N/C=C1\CCc2ccccc2C1=O,7.95
7,Cc1ccc(-c2ccnc3nc(Sc4ncc(C(F)(F)F)cc4Cl)nn23)cc1,7.96
8,Cc1cccc(C)c1NC(=O)C1CCCNC1 (stereo not drawn),-11.5
9,COc1ccc(NS(=O)(=O)c2cccc(C(=O)NNC(=O)c3cncc(Br)c3)c2)cc1,11.7
10,COc1cccc2nc3cc(C)c(C)cc3nc12,10.3
11,CCCNC(=O)N1CCN(C(=O)NCCC)CC1,11.3
12,Cc1ccc(-n2cc(CNCCN3CCOC3=O)c(-c3ccc(F)cc3)n2)cc1,-6.78
13,CCS(=O)(=O)N1CCC(C(=O)NCc2ccccc2OC)CC1,2.28
14,c1cncc(-c2nnc3sc(-c4ccco4)nn23)c1,-5.51
15,COc1ccc(S(=O)(=O)n2cnc3cc(C)c(C)cc32)cc1C,11
16,CCOC(=O)c1[nH]c(C)c(C(=O)N2CCN(C(=O)OCC)CC2)c1CC,12.4
17,COc1cc(C(=O)NNC(=O)c2ccc(NC(C)=O)cc2)cc(OC)c1OC,9.47
18,CC1CCCN(c2c([N+](=O)[O-])cc(C(=O)O)cc2[N+](=O)[O-])C1 (stereo not drawn),10.5
19,CC(=O)Nc1ccc(NC(=O)c2c(-c3ccccc3)noc2C)cn1,14.9
20,COc1cc(OC)cc(C(=O)NNC(=O)CCCOc2ccccc2)c1,-2.29
21,COc1cc2c(cc1OC)CN(C(=O)C1CCCN1S(=O)(=O)c1ccc(F)cc1)CC2 (stereo not drawn),17
22,CC(=O)N1CCN(Cc2nc3cc(NC(=O)Cn4nc(C)c5ccccc5c4=O)ccc3n2C)CC1,18.5
23,Cc1ccccc1C(CC(=O)c1cccs1)C(C#N)C#N (stereo not drawn),18.2
24,CC(C)OCCCNC(=O)c1ccc(CS(=O)(=O)c2cccc(C(F)(F)F)c2)o1,7.87
25,CCc1n[nH]c(=O)c2cc3cc(OC)ccc3n12,12.3
26,Cc1cc(NC(=O)CCC(=O)N(c2ccccc2)C(C(=O)NC2CCCCC2)c2cccs2)no1 (stereo not drawn),7.72
27,COc1ccc(Cl)cc1NC(=O)CN(C)C(=O)CCNC(=O)c1ccccc1OC,11.3

row,SMILES,"hERG current change (%, negative = inhibition) at 1uM [%]"
1,CCN(CC)C(=O)C(C)OC(=O)COc1ccc(Cl)cc1C (stereo not drawn),-0.579
2,Cc1cccc(OCC(O)Cn2c(-n3nc(C)cc3C)nc3c2c(=O)[nH]c(=O)n3C)c1 (stereo not drawn),2.89
3,COc1ccc(Cl)cc1NC(=O)NC(C)C(C)(C)C (stereo not drawn),8.96
4,COc1cc(C(=O)COC(=O)Cc2cnc3sccn23)cc(OC)c1OC,11.1
5,C=CCc1ccc(OCCCCN2CCC(C)CC2)c(OC)c1,-37.3
6,CC(=O)Nc1ccc(NC(=O)c2ccco2)cc1,6.96
7,CCN(Cc1nc(-c2ccc(C)cc2)no1)C(=O)c1ccco1,13.4
8,COc1cc(NC(=O)c2csc(-c3ccncc3)n2)cc(C(=O)Nc2cccc(C(F)(F)F)c2)c1,-4.22
9,COc1ccc(N2CCCCn3c2nc2c3c(=O)n(C)c(=O)n2C)cc1,-0.579
10,Cc1ccc(-n2ncc3c(N4CCC5(CC4)OCCO5)ncnc32)c(C)c1,16.7
11,CCOc1cc(/C=C2\C(=N)N3N=C(S(C)(=O)=O)SC3=NC2=O)ccc1OCCOc1cccc(OC)c1,6.69
12,O=C(O)c1cnn2c(C(F)(F)F)cc(-c3ccco3)nc12,21.1
13,CSc1ccccc1C(=O)Nc1cc(C)cc(C)c1,6.17
14,O=c1n(Cc2ccc(Cl)cc2)c2sc3c(c2c2ncnn12)CCCC3,-5.66
15,C[C@@]12CCC[C@@](C)(C(=O)O)C1CC[C@@]13C[C@@H](NCc4ccccc4)[C@@](C)(CCC12)C3 (stereo partly drawn),4.86
16,COc1ccc(N(CC(=O)NCCSCc2ccco2)S(=O)(=O)c2ccccc2)cc1Cl,-9.52
17,CCn1ncc(/C=N\NC(=O)COc2cc(C)cc(C)c2)c1C,13.4
18,O=C(c1ccc(Cl)c(S(=O)(=O)N2CCCC2)c1)N1CCCCC1,12.1
19,O=c1[nH]c(-c2ccc3c(c2)OCO3)nc2c1sc(=S)n2-c1ccccc1,12.2
20,O=C(c1ccc(CS(=O)c2ccccc2Cl)o1)N1CCN(c2ccccn2)CC1 (stereo not drawn),-3.08
21,OCC1(Cc2ccc(Cl)cc2)CCN(Cc2ccc(F)c(F)c2)CC1,-4.29
22,CC(/C=C/C=C/c1ccccc1)=N/NC(=O)c1ccc2c(c1)OCCO2,1.83
23,CC(C)c1nc2scc(-c3ccc(Cl)cc3)c2c(=O)n1N,3.75
24,Cc1ccc(N(CC(=O)NCC2CCCO2)C(=O)Cn2nnc(-c3cccs3)n2)cc1 (stereo not drawn),2.07
25,CCOc1ccc(NS(=O)(=O)c2cc(NC(=O)c3cccc(C)c3)ccc2Cl)cc1,14.1
26,COC(=O)c1cccc(COC(=O)c2ccc(CS(=O)(=O)c3ccc(C)cc3)cc2)c1,8.41
27,O=C(NC1CCCC1)C(c1ccccn1)N(Cc1ccccc1F)C(=O)c1csnn1 (stereo not drawn),10.7
